Test results reported in ChEMBL document CHEMBL1157539, “Thousands of chemical starting points for antimalarial lead identification” (Nature, 2010).
Whole data set: some 13,000 compounds, median “IFI” near 4, cut for the highest 2% near 17. The list shows a part of the results.

Assay: GSK_TCMDC: Inhibition Frequency Index (IFI). The number of non-kinase HTS assays where a compound showed > 50 % inhibition, expressed as a percentage of the number of such assays in which the compound was tested (-0 is zero)
Assay type: functional

| Compound | IFI [%] |
| --- | --- |
| CCCCCCCN1CC[C@@H](CCCc2ccnc3ccc(OCCCCN/C(N)=N/O)cc23)[C@@H](CC)C1 | 9.66 |
| O=C(NCCCCN1CCC(c2ccc(Br)cc2)CC1)c1ccc(NC(=O)c2ccc(Cl)cc2)cc1 | 4.55 |
| CCCCCC(C)NC[C@@H](O)[C@H](Cc1ccccc1)NC(=O)c1cc(NCC)cc(N2CCCCS2(=O)=O)c1 (some centres not stated) | 3.4 |
| O=c1cc(NCCCNCc2cc(Cl)c(Cl)cc2Cl)[nH]c2ccccc12 | 0.75 |
| CC(C)(C)c1nn(-c2ccccc2)c2[nH]c(=O)c(CNCc3ccccc3)cc12 | 3.79 |
| Cc1ccccc1C(=O)NC(NC(=S)Nc1ccc([N+](=O)[O-])cc1)C(Cl)(Cl)Cl (configuration not stated) | 11.6 |
| COc1ccc2nccc([C@@H](O)CN3CCC(NCc4nc5cc(F)cc(F)c5[nH]4)CC3)c2c1 | 3.65 |
| N#Cc1cc([N+](=O)[O-])ccc1-n1nc(C(N)=O)n(Cc2cccc(F)c2)c1=S | 2.74 |
| Cc1nc(Nc2ccc(F)cc2)nc(N2CCc3cc(O)ccc3C2C)c1C (configuration not stated) | 8.63 |
| CCOc1ccc(-c2nonc2NC(=O)c2cccc(Cl)c2)cc1OCC | 1.56 |
| CC(=O)c1ccc(O)c(CC(O)CO)c1 (configuration not stated) | -0 |
| N#Cc1ccc2c(c1)CCN(CCC1CCC(NC(=O)/C=C/c3c[nH]c4c(Br)cccc34)CC1)CC2 (configuration not stated) | 2.27 |
| Cn1c(N)cc(-c2cccc(I)c2)c2c(=O)nc(N)nc1-2 | 4.24 |
| COc1ccc(CN2CCC(CNCC(c3ccccc3)c3ccccc3)CC2)cc1 | 9.79 |
| COc1ccc(C(=O)NCc2ccc(N)nc2C)cc1Nc1ncc(-c2cccc(N(C)C)c2)cn1 | 9.38 |
| O=C(NC(CCCN1CCC2(CC1)OCc1ccccc12)c1ccc(Cl)c(Cl)c1)c1cc(C(F)(F)F)cc(C(F)(F)F)c1 (configuration not stated) | 8.72 |
| Cc1cc(C(F)(F)F)cc(-n2ncc(-c3ccc(C(=O)NCCNCc4ccccc4)cc3)c2N)n1 | 15.4 |
| CC(C)c1cc2c(ccc3nc(N)nc(N)c32)[nH]1 | 2.78 |
| O=S(=O)(Nc1cc2c(cc1OCCCN1CCCCC1)CCNCC2)c1ccc(-c2ccc(Cl)cc2)cc1 | 11.9 |
| CN(C)c1ccc(-c2ccc(C(=O)NC3CCN(Cc4ccc(F)cc4)CC3)s2)cc1 | 5.36 |
| O=C(NCCCCN1CCC(c2ccc3c(c2OCc2ccncc2)CCCC3)CC1)c1ccc(-c2ccc(C(F)(F)F)cc2)cc1 | 9.57 |
| Nc1nc(N)c2c(ccc3nn(Cc4cccnc4)cc32)n1 | 1.42 |

| Compound | IFI [%] |
| --- | --- |
| Cc1ccc(Nc2nc3cc(N(C)c4ccnc(Nc5cccc(CCS(C)(=O)=O)c5)n4)ccc3n2C)cc1 | 11.1 |
| COc1ccc2nccc([C@@H](O)CN3CCC(NCc4cc5oc(=O)n(C)c5cc4F)CC3)c2c1 | 0.74 |
| N#Cc1cccc(C(=O)N2CCOC(CCN3CCC(c4ccccc4)CC3)(c3ccc(Cl)c(Cl)c3)C2)c1 (configuration not stated) | 6.16 |
| COC(=O)Nc1ccc(-c2ccc(C(=O)NC3CCN(C[C@H](O)c4ccnc5ccc(OC)cc45)CC3)cc2)c(C)c1 | 2.94 |
| CCc1c(CCNCCCCCCNCCc2ccc(OC)cc2)ccc(OC)c1OC | 3.73 |
| COc1ccc2nccc([C@@H](O)CN3CCC(NC(=O)C(c4cc5ccccc5o4)N4CCN(C(c5ccccc5)c5ccccc5)CC4)CC3)c2c1 (some centres not stated) | 2.76 |
| CCCCN(CCCC)/C(=N/C(=N)NCc1ccc(Cl)c(Cl)c1)NCCCCCCN/C(=N\C(=N)NCc1ccc(Cl)c(Cl)c1)N(CCCC)CCCC | 22.9 |
| Cc1cccc2nc(-c3cccc(-c4ccc(C(=O)NCCc5ccc(O)c(=O)[nH]5)cc4)c3)[nH]c12 | 4.81 |
| CCc1ccnc2c(N3CCCC3=O)cc(C(=O)N[C@@H](Cc3ccccc3)[C@H](O)CNC3CCOCC3)cc12 | 0 |
| O=C(Nc1cccc(Cl)c1)N(CCCn1ccnc1)Cc1csc(-c2ccc(CNCc3ccccc3)cc2)n1 | 3.42 |
| COc1ccc(CNCc2ccc(-c3cccc(-c4nc5cccc(C)c5[nH]4)c3)cc2)cc1 | 15.4 |
| CC(C)(C)c1cc(Cn2ccnc2)cc(C(C)(C)C)c1O | 1.42 |
| CCCCN(CCCC)C(=O)CC(O)c1cc2c(Cl)cc(Cl)cc2c2cc(C(F)(F)F)ccc12 (configuration not stated) | 0.72 |
| Cc1nc2nc(N)nc(N)c2c(C)c1Cc1ccccc1 | 2.96 |
| CCOc1cc2ncnc(Nc3cc(Cl)c(Cl)c(Cl)c3)c2cc1OCC | 0.74 |
| O=C(Nc1ccc(-c2nc3ccccc3[nH]2)cc1)C1CCCN(C2CCC2)C1 (configuration not stated) | -0 |
| COc1ccc(NCc2cccc(-c3cccc(CNCCc4ccccc4)c3)c2)cc1 | 2.92 |
| C=CCn1cc(C2CCN(CCCCNC(=O)c3sc(-c4ccc(C(F)(F)F)cc4)nc3CO)CC2)c2cc(OC)ccc21 | 10.8 |
| Cc1cc(O)c(-c2ccc(Sc3ccc(Cl)cc3)cc2)c(C)n1 | 0.78 |
| CCN(CC)CCN(Cc1ccc(-c2ccc(C#N)cc2)cc1)C(=O)Cn1c(CCc2cccc(F)c2F)nc(=O)c2ccccc21 | 2.84 |
| C=CCn1c(=N)c(C(=O)NCc2ccc(F)cc2)cc2c(=O)n3cccc(C)c3nc21 | 3.39 |
| COc1ccc(C(=O)Nc2ccc(Nc3nc(C)cc(N(C)C)n3)cc2)c(OC)c1 | 2.33 |

| Compound | IFI [%] |
| --- | --- |
| O=C1CCCN1CCCNCc1ccc(-c2ccc(-c3nc4cc(C(F)(F)F)ccc4[nH]3)cc2)cc1 | 10.5 |
| COc1cccc(NC(=O)COc2ccc(C(=O)Nc3nc4ccccc4[nH]3)cc2)c1 | 1.85 |
| N=C(N)NC(=O)Nc1cc(Cl)c(F)c(Cl)c1 | 4.48 |
| Cc1ccc(C(=O)c2oc3ccc4c(C)cc(=O)oc4c3c2C)cc1 | 1.37 |
| Cc1[nH]c(C)c(-c2ccc(-c3ccc4c(c3)OCO4)nc2)c(=O)c1Br | 0.92 |
| CC1CN(c2cnn(C/C=C/c3ccc(NC(=O)c4ccc(Cl)cc4)cc3)c(=O)c2Cl)CC(C)N1 (configuration not stated) | 6.41 |
| COc1ccc2nccc([C@@H](O)CN3CCC(NC(=O)Cc4cccc5c(Br)cccc45)CC3)c2c1 | 2.21 |
| CC1CCN(c2nc(C(=O)Nc3ccc(F)cc3C(F)(F)F)c(C(C)C)s2)CC1 | 5.71 |
| CN1CCCN(Cc2ccc(-c3ccc(NS(=O)(=O)c4cccc5cccnc45)cc3)cc2)CC1 | 8.26 |
| CCn1c(C)c(C)c2cc(C(=O)Nc3ccon3)ccc21 | -0 |
| COc1cccc(C(=O)NCc2cccs2)c1OCc1ccccc1 | 0.72 |
| Oc1ccc(Nc2nc(NCC3CCCO3)c3ccccc3n2)cc1 (configuration not stated) | 3.65 |
| COc1ccc(CC2(CO)CCN(Cc3ccc(O)c(Cl)c3)CC2)cc1 | 0 |
| Cc1[nH]cnc1CSCCN/C(=N\C#N)NCCCCCCCCN/C(=N/C#N)NCCSCc1nc[nH]c1C | 1.49 |
| CC(C)(CNCc1ccc(Cl)cc1)c1nc(-c2ccc(Cl)c(O)c2)c(-c2ccncc2)[nH]1 | 7.09 |
| CNCCNCc1ccc(-c2ccc(-c3nc4cc(C(F)(F)F)ccc4[nH]3)cc2)cc1 | 9 |
| CC(=O)Nc1ccc(C(=O)Nc2cccc(-c3cccc(-c4nc5cc(C(F)(F)F)ccc5[nH]4)c3)c2)cn1 | 3.7 |
| COc1ccc(CCN(C)CCc2ccc(NC(=O)c3cccc4c(=O)c5ccccc5sc34)cc2)cc1 | 6.45 |
| CCC(C)(C)NC(=O)C(c1cccc(OC)c1)N(C(=O)CNC(=O)c1cccs1)c1ccc2c(c1)OCCO2 (configuration not stated) | 0.69 |
| COC(=O)[C@@H](NC(=O)[C@@H](Nc1ccc(C#N)c2ccccc12)C(C)(C)C)c1ccc(O)cc1 | 1.9 |
| Cc1ccccc1C(O)CNc1ccnc(Nc2cccc(C#N)c2)n1 (configuration not stated) | 7.69 |
| CCOC(=O)c1cccc(NC(=O)Nc2cccc(-c3ncc(OCCCN)c4c3nc(-c3nonc3N)n4CC)c2)c1 | 16.5 |

| Compound | IFI [%] |
| --- | --- |
| Nc1ncc(-c2cccc(CCN3CCOCC3)c2)cc1-c1nc2cc(Br)ccc2[nH]1 | 7.41 |
| COc1cc2nc(N3CCN(C(=O)c4cccc(I)c4)CC3)nc(N)c2cc1OC | 1.38 |
| CC1=C(C(=O)OCCOCc2ccccc2)C(c2ccccc2C(F)(F)F)C(C(=O)OCCOCc2ccccc2)=C(C)N1 | 3.6 |
| Cc1ccc(CNC(=O)[C@H](CC(C)C)Nc2cc(C)nc(NCC3CCCCC3)n2)cc1 | 19.1 |
| N=c1c2c(n(Cc3ccccc3)c3c1CCC3)CCCC2 | 1.45 |
| N=C(N)NCCN(Cc1ccccc1)c1ccccc1 | 4.44 |
| O=C(/C=C/c1ccc(Cl)c(Cl)c1)NCCCCCN1CCC(NC(=O)Nc2cccc(Cl)c2Cl)CC1 | 7.24 |
| O=C(NCc1cccc(OC(F)(F)F)c1)c1cnc2c(c1)nc(-c1c[nH]c(-c3ccccc3)n1)n2CCc1c[nH]cn1 | -0 |
| CS(=O)(=O)Nc1ccc(-c2ccc3ccnc(N)c3c2)cc1 | 8.99 |
| O=C(NCC1CCC(C(=O)NC2CCCc3ccccc32)CC1)c1ccc(O)c(-c2cccc([N+](=O)[O-])c2)c1 (configuration not stated) | -0 |
| O=C(Nc1cccc(-c2ccc(CN3CCCC3)cc2)c1)c1ccc(F)cc1 | 5.83 |
| Cc1cccc2nc(-c3ccc(-c4cccc(CNCC5CCCO5)c4)s3)[nH]c12 (configuration not stated) | 5 |
| Oc1ccc2[nH]c(-c3ccc(F)cc3F)nc2c1CN1CCC(O)(c2ccccc2)CC1 | 3.77 |
| O=C(Cc1ccc(Cl)cc1)NC1CCN(c2ccnc3cc(Cl)ccc23)C1 (configuration not stated) | 3.13 |
| O=C(/C=C/c1ccc(Cl)c(Cl)c1)NCCCCCN1CCC(NC(=O)Nc2ccc(F)c(Cl)c2)CC1 | 12.4 |
| Cc1ccc(-n2ncc(C(=O)Nc3cc(Cl)cc(Cl)c3)c2C2CCNCC2)cc1C | 8.74 |
| CC(C)(C)C(Cn1ccnc1)NCc1c[nH]nc1-c1ccc(-c2ccccc2)cc1 (configuration not stated) | -0 |
| N#Cc1ccc(N/C(=N\c2ccccc2Cl)NC2CCN(Cc3ccccc3)CC2)c(O)c1 | 1.47 |
| COc1cccc(C(=O)C2CC2CN(C)CCC(O)c2ccc(Cl)c(Cl)c2)c1 (configuration not stated) | 3.6 |
| COc1ccc(Nc2ncc3c(-c4cccc(NC(=O)Cc5ccc(O)cc5)c4)c[nH]c3n2)cc1OC | 5.11 |
| Fc1cccc(COc2ccc(Nc3ncnc4sc(C#C[C@H]5CCCN5)cc34)cc2F)c1 | 10.1 |
